Test results from ChEMBL document CHEMBL1156829.
In all, about 5,400 compounds were measured (“IFI”: median about 2, highest 2% from about 22 on). This is one part of the list.

Experiment: NOVARTIS: Inhibition Frequency Index (IFI) - the number of HTS assays where a compound showed > 50% inhibition/induction, expressed as a percentage of the number of assays in which the compound was tested.
Type: functional

Compound	IFI [%]
CC(c1nc2ccccc2c(=O)n1C)N1CCN(C(=O)C(C)(C)C)CC1 (centres undefined)	0
CCN1C=C(c2ccc(C)cc2)S/C1=C\c1sc2ccccc2[n+]1C	14.7
Cc1cccc(C)c1-n1c(SCc2cccc(F)c2)nc2c(sc(=S)n2-c2c(C)cccc2C)c1=O	0
CN(C)c1cccc(Nc2cc(-c3ccc(CC(N)C(=O)O)cc3)nc3ccnn23)c1 (centres undefined)	1.1
O=C(Cc1cccs1)NC1CCN(CC(O)CN(Cc2ccccc2)S(=O)(=O)c2ccccc2)C1 (centres undefined)	1.92
CCCc1cc(-c2onc(C)c2-c2ccc(C(=O)OCC)o2)c(O)cc1OC	3.51
CC(OC(=O)c1ccccc1N1C(=O)C2C3C=CC(C4CC34)C2C1=O)C(=O)c1ccccc1 (centres undefined)	0
CCN1C(=O)N(CC)C(NNC(N)=S)C1NNC(N)=S (centres undefined)	4.44
CC(C)CCN(CCC(C)C)CC(O)Cn1c2ccc(Br)cc2c2cc(Br)ccc21 (centres undefined)	5.5
C=CCc1cc(-c2cc(CC=C)c(O)c(CN(CC)CC)c2)cc(CN(CC)CC)c1O	2.35
O=C(C(Cc1c[nH]c2ccccc12)NS(=O)(=O)c1ccc(Cl)cc1)N1CCCCC1 (centres undefined)	0
N#Cc1sccc1NS(=O)(=O)c1ccc(Cl)cc1	0.848
CCc1c(C)c(C#N)c2nc3ccccc3n2c1Nc1ccc(C)c(Cl)c1	0
O=C(NC(CN1CCCC1)c1ccccc1)C1CCN(S(=O)(=O)c2ccc(Cl)cc2)CC1 (centres undefined)	1.94
O=C(NCCCCNc1ccnc2cc(Cl)ccc12)C1CCCC1	0.917
COCCCNC(=O)/C=C/c1ccc(C(C)C)cc1	0
COc1ccc(C2CC(=O)C3=C(C2)NC(C)=C(C(=O)OC2CCCC2)C3c2ccc(Cl)cc2)cc1 (centres undefined)	4.71
O=C(CC1OC(=O)c2ccccc21)c1ccc(Cl)cc1 (centres undefined)	5.33
O=C(C1CC1)N1CCOc2c(cc(-c3csc4ccccc34)cc2OCCc2ccccn2)C1	0.952
COc1cc(CNCCCn2ccnc2)ccc1OCc1ccccc1	0.935
CCC(C)NC(=O)c1c[nH]c2ccc(S(=O)(=O)N(C)c3cc(C)ccc3C)cc2c1=O (centres undefined)	7.69
CCCCCCCC[n+]1c(C)n(CC)c2ccc(Cl)cc21	7.69

Compound	IFI [%]
Oc1ccccc1CNC(Cc1ccccc1)C(O)(c1ccccc1)c1ccccc1 (centres undefined)	0
Cc1cnc(CNc2cc(-c3ccccn3)nc(-c3ccccn3)n2)nc1	11.8
COc1ccc(C[n+]2cc(-c3ccc(Cl)cc3)n3ccccc32)cc1	2.22
CCCNC(=O)c1ccc(OC2CCN(CC3CCCCC3)CC2)c(Cl)c1	4.17
CCOC(=O)C1=C(C)NC2=C(C(=O)CC(c3ccc(OC)c(OC)c3)C2)C1c1ccc(Cl)cc1Cl (centres undefined)	8.23
CCCC(=O)N1CCN(c2nc(Cc3ccccc3)c3c(c2C#N)CC(C)(C)OC3)CC1	4.54
CCOC(=O)C1=C(C)N/C(=C\c2cc(C)n(-c3ccc(C)cc3)c2C)C1=O	0
CCN1/C(=C/c2sc3ccc(OC)cc3[n+]2CC)C=Cc2cc(C)ccc21	23.1
CN(C)c1ccc(C=CC=Cc2cc[n+](C)cc2)cc1	12.4
CCOC(=O)c1ccc2nc3c(nc2c1)C(=O)c1ccccc1C3=O	21.9
CCn1c(SCCCCNC(=O)c2cc([N+](=O)[O-])cc([N+](=O)[O-])c2)nc(-c2ccccc2)c1-c1ccccc1	1.85
CC(=O)N1CCc2cc(Br)cc(S(=O)(=O)N(CC(C)C)CC(C)C)c21	0
CC(C)CNC(=O)c1cnc(NCCCN2CCCCC2C)nc1NCCc1ccccc1 (centres undefined)	3.74
CC(=O)N/C(=C\c1ccc(OC(F)F)cc1)C(=O)O	1.01
N=C(NN=Cc1cccc([N+](=O)[O-])c1)SC1CC(=O)N(c2cc(Cl)ccc2Cl)C1=O (centres undefined)	0
COc1cc(C(=O)NC(c2cccs2)c2cc(Cl)c3cccnc3c2O)cc(OC)c1OC (centres undefined)	0
Brc1ccc2[nH]c3c(NCCCN4CCOCC4)ncnc3c2c1	7.84
Oc1ccc(-c2cncnc2)cc1CNC1CCN(Cc2ccccc2)CC1	1.01
Cc1cccc(NC(=O)Nc2cccnc2)c1NC(=O)Nc1cccnc1	0
O=C(NCc1ccccc1C(F)(F)F)C1CC(O)CN1C(=O)Nc1ccccc1 (centres undefined)	0
O=C(NN=Cc1cccc(Cl)c1)C1COc2ccccc2O1 (centres undefined)	0
COc1ccc(S(=O)(=O)NCCCCNc2ccnc3cc(Cl)ccc23)cc1	3.74

Compound	IFI [%]
CN(CCCNc1ccnc2cc(Cl)ccc12)C(=O)C1C[C@H]1c1ccccc1 (some centres undefined)	8.49
Cc1cccc(-n2nc3c(c2NC(=O)c2ccc4c(c2)OCO4)CS(=O)(=O)C3)c1C	3.45
COc1ccc(C2C(C(=O)Nc3cc(Cl)c(OC)cc3OC)c3ccccc3C(=O)N2C)cc1 (centres undefined)	0
Cc1noc(-c2ccc(O)cc2O)c1-c1ccc2c(c1)OCCCO2	3.57
CCc1nnc2n1N(C(C)=O)C(c1ccc(Cl)c(Cl)c1)=C(C(C)=O)S2	0
S=C(NC1CCCCC1)NC1CC2CCC(C1)N2Cc1ccccc1 (centres undefined)	1.27
Cc1cc(Nc2ccc(Cl)cc2)nc(NCc2ccccc2)n1	4.62
CCN(C(=O)CSc1nc(-c2ccc(C(C)C)cc2)no1)c1cccc(C)c1	0
O=C(Cc1ccsc1)N1CCOc2c(cc(-c3csc4ccccc34)cc2OCCc2ccccn2)C1	1.94
CC(C)CNc1nc(NCCCN2CCCCC2C)ncc1C(=O)NCCc1ccccc1 (centres undefined)	3.85
CCOC(=O)c1c(C)oc2c1C(=O)c1ccccc1C2=O	3.17
COc1cc(OC)c(NC(=O)C2c3ccccc3C(=O)N(C)C2c2ccc(OC)c(OC)c2)cc1Cl (centres undefined)	0
CCNC1=C(C(=O)c2ccccc2)N(CC(=O)c2ccc(Br)cc2)S(=O)(=O)c2ccccc21	7.69
CC(=O)N1CCNC1=Nc1c(Cl)nc(C)nc1Cl	0
O=[N+]([O-])c1ccc(NN=Cc2cccs2)c(S(=O)(=O)N2CCCCCC2)c1	0
O=C(CN1CCC(NC(=O)c2cccc(F)c2)CC1)NC1CC1	1.59
COc1cc2c(cc1OC)C(COc1ccc(F)cc1)N(C(=O)c1ccc(OC(C)C)cc1)CC2 (centres undefined)	0
CCn1c(/C=C/N(C)c2ccccc2)[n+](CC)c2cc(Cl)ccc21	6.25
CN(C)c1ccc(N=C2NC(=O)/C(=C/c3ccc(Cl)cc3)S2)cc1	0
Cn1cc(/C=C/c2cc[n+](C)cc2)c2ccccc21	5.56
